This passage reports cell count results from the supplement of paper PMC4604168 (melanoma cell lines).

Test systems include MZ2-MEL; MeWo; RPMI7951; RVH-421; SkMel28; SkMel2; SkMel30; SkMel5; UACC257; UACC62.
Holding throughout (assay): cell count relative to DMSO control; melanoma cells; higher = more viable cells
Conditions in all cases: library dose: low library concentration; 72 h

SMILES strings stand for the structures. The list shows a part of the results. Repeats are few or missing, and single values can be far off.
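Also: cell number obtained by counting DAPI-stained nuclei in high-throughput microscope images with image analysis software, screen run in 1,536-well plates.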

`Cc1cc(Nc2cc(N3CCN(C)CC3)nc(Sc3ccc(NC(=O)C4CC4)cc3)n2)n[nH]1` [Tozasertib] + C=CCn1c(=O)c2cnc(Nc3ccc(N4CCN(C)CC4)cc3)nc2n1-c1cccc(C(C)(C)O)n1 [MK1775] (first compound 0.006 µM, partner dose 0.02 µM): the cell count was 104% in the assay on MZ2-MEL; 89.4% in the assay with MeWo; 101% with RPMI7951; 75.3% in the assay on RVH-421; 81.6% with SkMel28; 95.1% with SkMel2. The cell count in the assay on SkMel30 is 116%; in the assay with SkMel5, 80.4%; with UACC257, 82.5%; with UACC62, 82.4%.

On to `CC[C@]1(O)C[C@H]2CN(CCc3c([nH]c4ccccc34)[C@@](C(=O)OC)(c3cc4c(cc3OC)N(C=O)[C@H]3[C@@](O)(C(=O)OC)[C@H](OC(C)=O)[C@]5(CC)C=CCN6CC[C@]43[C@@H]65)C2)C1` [vincristine] + O=C(O)c1ccc(-c2c[nH]c3ncc(-c4ccccc4)cc23)cc1C1CCCC1 [GSK650394] (first compound 0.0001 µM, partner dose 0.16 µM), for which the cell count with MZ2-MEL was 94%; with MeWo it was 68.2%; in the assay on RPMI7951, 58.9%; with RVH-421 it was 91.5%; in the assay on SkMel28, 63.3%; in the assay on SkMel2 it was 84.8%. In addition, the cell count in the assay with SkMel30 came to 43.6%; in the assay on SkMel5, 80.9%; in the assay on UACC257, 36%; in the assay with UACC62, 52.2%.

`N#CC[C@H](C1CCCC1)n1cc(-c2ncnc3[nH]ccc23)cn1` [ruxolitinib] + O=C(O)c1ccc(-c2c[nH]c3ncc(-c4ccccc4)cc23)cc1C1CCCC1 [GSK650394] (first compound 1 µM, partner dose 0.16 µM): the cell count was determined as 102% in the assay on MZ2-MEL; 89% in the assay on MeWo; 111% in the assay on RPMI7951; 79.2% in the assay on RVH-421; 103% in the assay on SkMel28; 111% with SkMel2. In addition, the cell count in the assay with SkMel30 turned out to be 114%; in the assay on SkMel5, 98.9%; with UACC257, 95.5%; in the assay with UACC62, 120%.

Turning to `CC[C@]1(O)C[C@H]2CN(CCc3c([nH]c4ccccc34)[C@@](C(=O)OC)(c3cc4c(cc3OC)N(C=O)[C@H]3[C@@](O)(C(=O)OC)[C@H](OC(C)=O)[C@]5(CC)C=CCN6CC[C@]43[C@@H]65)C2)C1` [vincristine] + Cn1cncc1[C@@](N)(c1ccc(Cl)cc1)c1ccc2c(c1)c(-c1cccc(Cl)c1)cc(=O)n2C [tipifarnib] (first compound 0.0001 µM, partner dose 0.01 µM), the cell count was 66.8% in the assay with MZ2-MEL; 80.1% in the assay with MeWo; 26.5% in the assay on RPMI7951; 79.2% with RVH-421; 53.3% in the assay with SkMel28; 86.2% in the assay with SkMel2. In addition, the cell count was determined as 52.3% in the assay with SkMel30, 73.9% in the assay with SkMel5, 44.1% with UACC257 and 52% with UACC62.

For the molecule `N#CC[C@H](C1CCCC1)n1cc(-c2ncnc3[nH]ccc23)cn1` [ruxolitinib] + COc1ccc2c(c1)CCC1C2CCC2(C)C(NCCCCCCN3C(=O)C=CC3=O)CCC12 [U73122] (first compound 1 µM, partner dose 0.4 µM), the cell count stood at 95% in the assay on MZ2-MEL; 97.8% in the assay on MeWo; 99.9% in the assay with RPMI7951; 94.7% in the assay with RVH-421; 115% with SkMel28; 104% in the assay with SkMel2. In addition, the cell count in the assay on SkMel30 amounted to 60.7%; in the assay on SkMel5, 106%; in the assay on UACC257, 79.6%; with UACC62, 116%.

As to `CC[C@]1(O)C[C@H]2CN(CCc3c([nH]c4ccccc34)[C@@](C(=O)OC)(c3cc4c(cc3OC)N(C=O)[C@H]3[C@@](O)(C(=O)OC)[C@H](OC(C)=O)[C@]5(CC)C=CCN6CC[C@]43[C@@H]65)C2)C1` [vincristine] + CO[C@@H]1[C@H](N(C)C(=O)c2ccccc2)C[C@H]2O[C@]1(C)n1c3ccccc3c3c4c(c5c6ccccc6n2c5c31)C(=O)NC4 [Midostaurin] (first compound 0.0001 µM, partner dose 0.08 µM), the cell count in the assay on MZ2-MEL was 99%; in the assay with MeWo, 88.1%; with RPMI7951, 61.1%; in the assay on RVH-421, 92.2%; in the assay with SkMel28, 79.3%; with SkMel2, 90.4%. Also, the cell count worked out at 87.2% in the assay on SkMel30, 82.1% with SkMel5, 64.4% in the assay on UACC257 and 74.3% in the assay with UACC62.

As to `CC[C@]1(O)C[C@H]2CN(CCc3c([nH]c4ccccc34)[C@@](C(=O)OC)(c3cc4c(cc3OC)N(C=O)[C@H]3[C@@](O)(C(=O)OC)[C@H](OC(C)=O)[C@]5(CC)C=CCN6CC[C@]43[C@@H]65)C2)C1` [vincristine] + COc1ccc(COc2ccc(Cc3cnc(N)nc3N)cc2OC)cc1 [GW2580] (first compound 0.0001 µM, partner dose 1 µM), the cell count in the assay on MZ2-MEL is 97.4%; in the assay with MeWo it was 106%; in the assay with RPMI7951, 113%; in the assay with RVH-421, 90.1%; in the assay on SkMel28, 97.7%; with SkMel2, 108%. In addition, the cell count in the assay on SkMel30 was 98.2%; in the assay with SkMel5 it was 101%; with UACC257, 92.7%; in the assay with UACC62, 107%.

With `Cc1cc(Nc2cc(N3CCN(C)CC3)nc(Sc3ccc(NC(=O)C4CC4)cc3)n2)n[nH]1` [Tozasertib] + CC1(C)NC(=O)N(c2ccc([N+](=O)[O-])c(C(F)(F)F)c2)C1=O [nilutamide] (first compound 0.006 µM, partner dose 1 µM), the cell count in the assay with MZ2-MEL is 99.5%; in the assay with MeWo it was 89.7%; with RPMI7951, 99.9%; in the assay with RVH-421, 111%; with SkMel28 it was 96.3%; with SkMel2, 102%. Moreover, the cell count with SkMel30 was 98.9%; in the assay on SkMel5, 94.1%; in the assay on UACC257 it was 98.6%; in the assay on UACC62 it was 93.8%.

As for `Cc1cc(Nc2cc(N3CCN(C)CC3)nc(Sc3ccc(NC(=O)C4CC4)cc3)n2)n[nH]1` [Tozasertib] + COc1ccc2c(c1)CCC1C2CCC2(C)C(NCCCCCCN3C(=O)C=CC3=O)CCC12 [U73122] (first compound 0.006 µM, partner dose 0.4 µM), the cell count was 105% in the assay on MZ2-MEL; 95.6% in the assay with MeWo; 73.9% in the assay on RPMI7951; 79.8% with RVH-421; 91.3% in the assay with SkMel28; 110% with SkMel2. Further, the cell count in the assay on SkMel30 amounted to 113%; in the assay with SkMel5, 104%; in the assay with UACC257, 103%; with UACC62 it was 99%.
